The other results are listed elsewhere or left out.

In the assay the target is T1, MBP-FoxP1dN (Mus musculus, UniProt P58462 326-579).
T1 sequence: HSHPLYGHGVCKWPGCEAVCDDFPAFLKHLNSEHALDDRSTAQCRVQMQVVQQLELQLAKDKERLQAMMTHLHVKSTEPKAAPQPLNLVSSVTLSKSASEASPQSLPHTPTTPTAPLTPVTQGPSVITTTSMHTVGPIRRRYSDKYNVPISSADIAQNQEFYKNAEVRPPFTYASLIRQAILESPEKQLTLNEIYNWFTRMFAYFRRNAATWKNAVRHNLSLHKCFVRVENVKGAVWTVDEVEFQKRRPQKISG
In words: PD-seq (MBP pull-down with sequencing); 20 mM Tris-HCl pH 7.5, 100 mM NaCl, 1.5 mM MgCl2, 0.4 uM protein, 0.1 uM dsDNA library, 30 min, room temperature, amylose pull-down; high values mean tight binding. Particulars: protein: recombinant; tags: His6-MBP; chain copies: 2; dsDNA, one strand shown. The essentials:
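A degenerate double-stranded DNA library, filled in with Klenow, was added at 0.1 µM to 0.4 µM His6-MBP-tagged mouse FoxP3 or FoxP1 fragment lacking the N-terminus, expressed in E. coli. Incubation lasted 30 min at room temperature in Tris pH 7.5 buffer with NaCl and MgCl2, after which complexes were collected on amylose resin, washed three times, digested with proteinase K to free the DNA, barcoded by PCR and sequenced by Illumina. Binding is the pooled-replicate reads-per-million enrichment of pull-down over input.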
In the case of “GATGATTGTTCTCCCAGCTGATGAATTTCTCTGATCGAGTAAACAAATTTTCCTAATCTTTCTGTTCAAGCGCCATCTAC”, the binding signal is 0.854 RPM ratio (pull-down/input). For “GATGATTGTTCTCCCAGCTGATGAATTCGCCGAATCGAGTAAACAAATTTTCCTAATCTTTCTGTTCAAGCGCCATCTAC”, the binding signal is 0.874 RPM ratio (pull-down/input). Turning to “GATGATTGTTCTCCCAGCTGATGAATTGGGTTTCTCGAGTAAACAAATTTTCCTAATCTTTCTGTTCAAGCGCCATCTAC”, the binding signal was 0.842 RPM ratio (pull-down/input). In the case of “GATGATTGTTCTCCCAGCTGATGAATTTAGGGGATCGAGTAAACAAATTTTCCTAATCTTTCTGTTCAAGCGCCATCTAC”, the binding signal was 0.957 RPM ratio (pull-down/input). As for “GATGATTGTTCTCCCAGCTGATGAATTTCGCTGATCGAGTAAACAAATTTTCCTAATCTTTCTGTTCAAGCGCCATCTAC”, the binding signal was 0.874 RPM ratio (pull-down/input). Turning to “GATGATTGTTCTCCCAGCTGATGAATTTGCGTGTTCGAGTAAACAAATTTTCCTAATCTTTCTGTTCAAGCGCCATCTAC”, the binding signal was 1.2 RPM ratio (pull-down/input). “GATGATTGTTCTCCCAGCTGATGAATTTTTTCGCTCGAGTAAACAAATTTTCCTAATCTTTCTGTTCAAGCGCCATCTAC”: the binding signal is 0.942 RPM ratio (pull-down/input). The result for “GATGATTGTTCTCCCAGCTGATGAATTTTTGAGATCGAGTAAACAAATTTTCCTAATCTTTCTGTTCAAGCGCCATCTAC” reads 0.928 RPM ratio (pull-down/input); that for “GATGATTGTTCTCCCAGCTGATGAATTCGATGCATCGAGTAAACAAATTTTCCTAATCTTTCTGTTCAAGCGCCATCTAC”, 1.23 RPM ratio (pull-down/input). For the sequence “GATGATTGTTCTCCCAGCTGATGAATTTCAACAGTCGAGTAAACAAATTTTCCTAATCTTTCTGTTCAAGCGCCATCTAC”, the binding signal was 0.922 RPM ratio (pull-down/input). As to “GATGATTGTTCTCCCAGCTGATGAATTCACTTCGTCGAGTAAACAAATTTTCCTAATCTTTCTGTTCAAGCGCCATCTAC”, the binding signal was 0.914 RPM ratio (pull-down/input). The result for “GATGATTGTTCTCCCAGCTGATGAATTGCGTGTCTCGAGTAAACAAATTTTCCTAATCTTTCTGTTCAAGCGCCATCTAC” reads 0.98 RPM ratio (pull-down/input); that for “GATGATTGTTCTCCCAGCTGATGAATTCAATAAGTCGAGTAAACAAATTTTCCTAATCTTTCTGTTCAAGCGCCATCTAC”, 0.939 RPM ratio (pull-down/input). As for “GATGATTGTTCTCCCAGCTGATGAATTCGGCCTTTCGAGTAAACAAATTTTCCTAATCTTTCTGTTCAAGCGCCATCTAC”, the binding signal was 0.797 RPM ratio (pull-down/input). For the sequence “GATGATTGTTCTCCCAGCTGATGAATTATCAGGGTCGAGTAAACAAATTTTCCTAATCTTTCTGTTCAAGCGCCATCTAC”, the binding signal is 0.82 RPM ratio (pull-down/input). As to “GATGATTGTTCTCCCAGCTGATGAATTTGGCTGTTCGAGTAAACAAATTTTCCTAATCTTTCTGTTCAAGCGCCATCTAC”, the binding signal is 0.894 RPM ratio (pull-down/input). The result for “GATGATTGTTCTCCCAGCTGATGAATTAAATTCCTCGAGTAAACAAATTTTCCTAATCTTTCTGTTCAAGCGCCATCTAC” reads 0.884 RPM ratio (pull-down/input); that for “GATGATTGTTCTCCCAGCTGATGAATTATGAACGTCGAGTAAACAAATTTTCCTAATCTTTCTGTTCAAGCGCCATCTAC”, 1.02 RPM ratio (pull-down/input); that for “GATGATTGTTCTCCCAGCTGATGAATTCCGCCGCTCGAGTAAACAAATTTTCCTAATCTTTCTGTTCAAGCGCCATCTAC”, 0.747 RPM ratio (pull-down/input). Regarding “GATGATTGTTCTCCCAGCTGATGAATTTTACCACTCGAGTAAACAAATTTTCCTAATCTTTCTGTTCAAGCGCCATCTAC”, the binding signal is 0.85 RPM ratio (pull-down/input).

As for “GATGATTGTTCTCCCAGCTGATGAATTGTTGAAGTCGAGTAAACAAATTTTCCTAATCTTTCTGTTCAAGCGCCATCTAC”, the binding signal was 1.06 RPM ratio (pull-down/input).

For “GATGATTGTTCTCCCAGCTGATGAATTCGCACTTTCGAGTAAACAAATTTTCCTAATCTTTCTGTTCAAGCGCCATCTAC”, the binding signal is 0.852 RPM ratio (pull-down/input). The result for “GATGATTGTTCTCCCAGCTGATGAATTTTCTGTCTCGAGTAAACAAATTTTCCTAATCTTTCTGTTCAAGCGCCATCTAC” reads 0.87 RPM ratio (pull-down/input); that for “GATGATTGTTCTCCCAGCTGATGAATTAACGAACTCGAGTAAACAAATTTTCCTAATCTTTCTGTTCAAGCGCCATCTAC”, 0.842 RPM ratio (pull-down/input); that for “GATGATTGTTCTCCCAGCTGATGAATTGCGGTAGTCGAGTAAACAAATTTTCCTAATCTTTCTGTTCAAGCGCCATCTAC”, 1.05 RPM ratio (pull-down/input). For “GATGATTGTTCTCCCAGCTGATGAATTAGTCACTTCGAGTAAACAAATTTTCCTAATCTTTCTGTTCAAGCGCCATCTAC”, the binding signal is 0.984 RPM ratio (pull-down/input). As to “GATGATTGTTCTCCCAGCTGATGAATTTAAGTGATCGAGTAAACAAATTTTCCTAATCTTTCTGTTCAAGCGCCATCTAC”, the binding signal is 0.94 RPM ratio (pull-down/input).

With “GATGATTGTTCTCCCAGCTGATGAATTCCACGTATCGAGTAAACAAATTTTCCTAATCTTTCTGTTCAAGCGCCATCTAC”, the binding signal was 0.905 RPM ratio (pull-down/input). Consider “GATGATTGTTCTCCCAGCTGATGAATTAGAAGGATCGAGTAAACAAATTTTCCTAATCTTTCTGTTCAAGCGCCATCTAC”, for which the binding signal was 0.893 RPM ratio (pull-down/input). As to “GATGATTGTTCTCCCAGCTGATGAATTCTGACAGTCGAGTAAACAAATTTTCCTAATCTTTCTGTTCAAGCGCCATCTAC”, the binding signal was 0.865 RPM ratio (pull-down/input). Under “GATGATTGTTCTCCCAGCTGATGAATTCCATATTTCGAGTAAACAAATTTTCCTAATCTTTCTGTTCAAGCGCCATCTAC” stands 0.948 RPM ratio (pull-down/input).

The values are drawn from publication PMC12820563, “FoxP3 forms a head-to-head dimer in vivo and stabilizes its multimerization on adjacent microsatellites”.
